Measured values taken from the supplement of paper PMC10320760.
This is a noisy data set.

B1: Ydj1; a variant is named by its letters at X, in order (parent)
chain: MVKETKFYDILGVPVTATDVEIKKAYRKCALKYHPDKNPSEEAAEKFKEASAAYEILSDPEKRDIYDQFGEDGLSGAGGAGGFPGGGFGFGDDIFSQFFGAGGAQRPRGPQRGKDIKHEISASLEELYKGRTAKLALNKQILCKECEGRGGKKGAVKKCTSCNGQGIKFVTRQMGPMIQRFQTECDVCHGTGDIIDPKDRCKSCNGKKVENERKILEVHVEPGMKDGQRIVFKGEADQAPDVIPGDVVFIVSERPHKSFKRDGDDLVYEAEIDLLTAIAGGEFALEHVSGDWLKVGIVPGEVIAPGMRKVIEGKGMPIPKYGGYGNLIIKFTIKFPENHFTSEENLKKLEEILPPRIVPAIPKKATVDECVLADFDPAKYNRTRASRGGANYDSDEEEQGGEGVQCXXX

Variants of: B1
Assay: enrichment factor, frequency at 37 °C / frequency at 25 °C (thermotolerance selection) (ratio); higher = more growth at 37 °C, higher likelihood of farnesylation
Conditions: with Saccharomyces cerevisiae ydj1Δ (yWS304); selective temperature 37 °C; reference temperature 25 °C
Procedure: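 Pooled library of all 8,000 Ydj1-CXXX C-terminal motif variants (native CASQ replaced by C + three variable residues, one codon per amino acid) expressed from a CEN plasmid in S. cerevisiae ydj1Δ (yWS304). The library was grown in SC-Ura liquid to A600 ~2 (~8 generations) at permissive 25 °C or selective 37 °C. Reads from 8 and 7 replicates were pooled and variants counted by NGS. Enrichment factor = frequency at 37 °C / frequency at 25 °C, with a +1 correction; it reports Ydj1-dependent thermotolerance, used as a read-out of farnesylation by yeast FTase.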

Variant	enrichment factor
GFP	0.183
HFP	0.911
IFP	0.143
KFP	0.214
LFP	0.217
MFP	0.153
NFP	0.152
PFP	0.183
CFP	1.23
QFP	0.184
RFP	0.116
SFP	0.129
TFP	0.194
VFP	0.124
WFP	1.48
YFP	0.273
DFP	0.165
AFP	0.0998
EFQ	3.28
FFQ	0.927
GFQ	1.72
HFQ	2.01
IFQ	3.76
KFQ	8.77

Variant	enrichment factor
LFQ	2.8
MFQ	1.68
NFQ	3.29
PFQ	1.88
CFQ	0.901
QFQ	3.23
RFQ	2.24
SFQ	1.68
TFQ	2.43
VFQ	0.993
WFQ	1.24
YFQ	0.811
DFQ	1.98
AFQ	2.43
EFR	0.984
FFR	0.171
GFR	0.122
HFR	0.156
IFR	0.562
KFR	0.211
LFR	0.195
MFR	0.251
NFR	0.414
PFR	0.203

Variant	enrichment factor
CFR	0.446
QFR	0.47
RFR	0.129
SFR	0.247
TFR	0.719
VFR	1.56
WFR	0.399
YFR	0.192
DFR	0.153
AFR	0.584
EFS	1.11
FFS	2.66
GFS	2.07
HFS	4.95
IFS	1.39
KFS	4.12
LFS	1.83
MFS	1.09
NFS	5.02
PFS	1.51
CFS	0.414
QFS	2.64
RFS	4.25
SFS	1.95

Variant	enrichment factor
TFS	6.95
VFS	1.54
WFS	1.96
YFS	3.97
DFS	1.35
AFS	2.98
EFT	1.26
FFT	3.31
GFT	1.9
HFT	4.57
IFT	0.643
KFT	2.8
LFT	1.79
MFT	2.68
NFT	1.43
PFT	1.67
CFT	1
QFT	3.26
RFT	1.23
SFT	2.35
TFT	4.21
VFT	1.45
WFT	1.52
YFT	3.59

Variant	enrichment factor
DFT	1.51
AFT	2.5
EFV	2.4
FFV	5.09
GFV	1.12
HFV	5.5
IFV	1.74
KFV	1.42
LFV	0.927
MFV	4.63
NFV	2.32
PFV	1.33
CFV	0.29
QFV	1.16
RFV	0.632
SFV	3.86
TFV	1.35
VFV	0.869
WFV	1.38
YFV	3.04
DFV	1.97
AFV	2.7
EFW	1.31
FFW	1.68

Variant	enrichment factor
GFW	1.25
HFW	1.82
IFW	1.45
KFW	0.744
LFW	1.36
MFW	1.59
NFW	1.35
PFW	0.767
CFW	0.203
QFW	2.01
RFW	0.993
SFW	1.79
TFW	2.43
VFW	0.662
WFW	1.65
YFW	1.08
DFW	0.643
AFW	1.35
AFY	2.32
EFY	1.5
FFY	1.12
GFY	1.27
HFY	2.24
IFY	1.16

Variant	enrichment factor
KFY	1.88
LFY	1.74
MFY	1.88
NFY	2.05
PFY	1.39
CFY	0.158
QFY	2.01
RFY	2.47
SFY	3.44
TFY	2.03
VFY	1.01
WFY	1.4
YFY	1.46
DFY	0.255
AGA	1.51
EGA	0.519
FGA	0.823
GGA	0.321
HGA	0.711
IGA	1.14
KGA	0.846
LGA	1.33
MGA	1.02
